Experimental data taken from PubChem BioAssay AID1347070 (National Center for Advancing Translational Sciences (NCATS), 2019).
The whole screen tested about 94,000 compounds, of which about 20 (0.02%) were called active. The shares of active, inactive and inconclusive entries below differ from those in the screen. Calls follow the shape of the dose curve; as a rule, active = well fitted activation curve with a large enough effect; inconclusive = small, poorly fitted or top-dose-only effect; inactive = flat fitted curve, though single readings scatter. No potency is given beside an inconclusive call; the fits are too rough.

assay: qHTS of alpha-syn Inhibitors: NCGC Sytravon Library Screen; as to growth rescue (activation): 0% is about no effect; conditions: S. cerevisiae alpha-synuclein toxicity rescue, BacTiter-Glo growth, 24 h; growth rescue (activation): at 46.1 µM (top of the series)
Excerpt: The goal of this project is to identify new chemical probes capable of reversing the toxicity associated with the Parkinson disease-related protein, alpha-synuclein. Compounds will be selected on their ability to restore growth in yeast cells expressing toxic levels of alpha-synuclein. These compounds will provide a complementary approach to deciphering the tangled mechanisms of toxicity and protection that we have uncovered through genome-wide genetic screens and are beginning to uncover in a large-scale proteomics analysis with mass spectroscopy. To this end, a miniaturized assay was developed to be screened against the Molecular Libraries Small Molecule Repository (MLSMR) to discover alpha-synuclein inhibitors. […] The phenotype of interest will be that of an Activator and this screen is run against the NCGC Sytravon Library collection. NIH Chemical Genomics Center [NCGC] NIH Molecular Libraries Probe Centers Network [MLPCN] MLPCN Grant: NS060957 Assay Submitter (PI): Susan Lindquist, Whitehead Institute/MIT
Dispense 2.5 microL yeast galactose medium per 1536-well plate, pin compound, dispense 2.5 microL alpha-synuclein expressing yeast in galactose medium at OD600=0.02 (pregrown in raffinose medium to mid-log phase) per well, incubate for 24 hr at 30 deg C, and cell growth will be measured using 5 microL of Bactiter/Glo reagent to entire plate and read using Luminescence Protocol in ViewLux.
Potency is read from the fitted curve at half-maximal effect; tags tell the direction and shape of the fitted curve.

SMILES	growth rescue (activation)	Potency
CC(=NNC(=S)Nc1ccccc1)c1ccccn1	inconclusive: 47.8% [activator]	–
O=C(Cn1ncc2c3ccccc3n(Cc3ccc(Cl)cc3)c2c1=O)N1CCCCCC1	–	inconclusive [activator, single point]
COc1ccccc1CNS(=O)(=O)c1ccc2[nH]c3c(c2c1)CCCCC3	–	inconclusive [activator, single point]
COc1ccc(-c2nnc(C3CCN(S(=O)(=O)c4cccc(Cl)c4)CC3)o2)cc1	inconclusive: 31.2% [activator]	–
O=S(=O)(c1ccc(F)cc1)N1CCC(Oc2cccc(C(F)(F)F)c2)CC1	–	inactive
CCCCN(C(=O)C1CCC(CNS(=O)(=O)c2cccc3nsnc23)CC1)c1ccccc1 (stereo not drawn)	–	inconclusive [activator, single point]
CCc1ccc(OCC(=O)N2CCc3ccccc32)cc1	inconclusive: 40.5% [activator]	–
Cc1cc(C(=O)COC(=O)Cc2c(F)cccc2Cl)c(C)n1C	inconclusive: 39.2% [activator]	–
Cc1ccc(C)c(N2CCN(C(=O)Cn3cnc4onc(-c5ccc(F)cc5)c4c3=O)CC2)c1	–	inconclusive [activator, single point]
CCc1nc(N2CCN(C(=O)CCCl)CC2)c2c3c(sc2n1)CCCC3	inconclusive: 47.1% [activator]	–
Cc1ccc(-n2c(SCc3ccccc3F)nc3[nH]ncc3c2=O)cc1Cl	–	inconclusive [activator, single point]
CCOC(=O)c1sc2ccccc2c1S(=O)(=O)NCc1ccccc1OC	–	inconclusive [activator, single point]
CCN1C(C(=O)c2ccccc2)=C(OC(=O)COc2ccc(C)cc2)c2ccccc2S1(=O)=O	inconclusive: -57.8% [activator]	–
CCc1ccc2nc(N(Cc3cccnc3)C(=O)c3ccc(C#N)cc3)sc2c1	–	inconclusive [activator, full curve]
CCn1nc(C)cc1C(=O)N1CCc2c([nH]c3ccccc23)C1c1cc(F)ccc1F (stereo not drawn)	inconclusive: 48% [activator]	–
c1ccc2c(NC3C4CC5CC(C4)CC3C5)nc(N3CCOCC3)nc2c1 (stereo not drawn)	inconclusive: 31.2% [activator]	–
O=C(CCc1ccccc1)N(Cc1cccnc1)c1nc2ccc(F)cc2s1	–	inconclusive [activator, full curve]
CN(C(=O)COC(=O)c1ccc(Br)o1)c1c(N)n(Cc2ccccc2)c(=O)[nH]c1=O	–	inactive
O=C(CCS(=O)(=O)c1ccc2c(c1)NC(=O)CO2)Nc1cccc(C(F)(F)F)c1	–	inconclusive [activator, single point]
O=C(O)c1ccc(COc2ccc3c(c2)CCC3)cc1	inconclusive: 31.7% [activator]	–
CCCCOCc1cc(CN2CCN(c3cccc(Cl)c3)CC2)c(O)c2ncccc12	–	inconclusive [activator, single point]
CCC(C(=O)Nc1ccc(C(C)=O)cc1)n1c(C)c2cnn(-c3ccccc3)c(=O)c2c1C (stereo not drawn)	–	inactive

SMILES	growth rescue (activation)	Potency
CCN(CC)CCn1c2c(c(SCC(=O)Nc3ccc(C(C)C)cc3)nc1=O)CCC2	–	inactive
O=c1cc(CNc2cc(Cl)ccc2Cl)nc2sccn12	inconclusive: 345% [activator]	–
COc1ccc(Br)cc1CC1C(=O)Nc2ccccc21 (stereo not drawn)	–	inconclusive [activator, partial curve]
Cc1cccc(CCNC(=O)c2nc(-c3ccc(Cl)cc3)n3c2CCCCC3)c1	–	inconclusive [activator, single point]
COc1ccccc1N1CCN(C(=O)c2cc3c(=O)n(Cc4cccnc4)ccc3nc2C)CC1	–	inactive
O=C(Nc1ccc(Cl)cc1C(F)(F)F)c1cc(S(=O)(=O)NCc2ccccc2)ccc1F	–	inconclusive [activator, single point]
CC(=O)Nc1nonc1-c1nnc(SCc2cccc(Br)c2)n1C	–	inactive
COc1cc(C)ccc1OCCSc1nnc(-c2cccs2)o1	–	inconclusive [activator, single point]
Cc1ccnc(NC(c2cc(C)ccc2O)c2ccc3cccnc3c2O)c1 (stereo not drawn)	–	inconclusive [activator, single point]
Cc1[nH]c2ccccc2c1SCCNC(=O)c1ccc(F)cc1	–	inconclusive [activator, single point]
Cc1cc(-c2ccc(C)c(S(=O)(=O)NCCc3ccccc3)c2)on1	–	inconclusive [activator, single point]
COc1cccc(N2CCN(C(=O)Cn3ncc4c3-c3ccccc3OC4)CC2)c1	–	inconclusive [activator, partial curve]
CSc1cccc(NC(=O)c2ccc3c(c2)CCCN3S(C)(=O)=O)c1	–	inactive
Cc1ccccc1Nc1nnc(-c2ccc(C)c(S(=O)(=O)NCC3CCCO3)c2)c2ccccc12 (stereo not drawn)	–	inactive
Cc1nc2sccn2c(=O)c1S(=O)(=O)Nc1cccc(Cl)c1C	–	inconclusive [activator, single point]
CCOC(=O)c1ccc(NC(=O)C2CCCN(c3cnccn3)C2)cc1 (stereo not drawn)	–	inconclusive [activator, single point]
Cc1ccc(C)c(NS(=O)(=O)c2ccc3c(c2)CCCN3C(=O)C2CCC2)c1	–	inconclusive [activator, single point]
COc1ccc(NC(=O)CCC(=O)Nc2cc(OC)c(NC(=O)c3ccco3)cc2OC)c(OC)c1	–	inactive
CCc1ccccc1N1CC(c2nc3ccccc3n2CCC2CCCCC2)CC1=O (stereo not drawn)	–	inconclusive [activator, single point]
COc1cc(OC)c(C2C=C(c3ccc(C)cc3)Nc3c(C(=O)Nc4ccccc4)cnn32)cc1OC (stereo not drawn)	–	inconclusive [activator, single point]
Cc1ccc(/C=C/c2onc(C)c2S(=O)(=O)N2CCC(C(=O)N3CC(C)Oc4ccccc43)CC2)cc1 (stereo not drawn)	–	inactive
